Hit rate of the full screen: of about 3,200 compounds, about 75 (2%) showed an effect of 50% or more. This is one part of the list.
tested on: T1, S. aureus MSSA476; design: species or system S. aureus MSSA476 (TSB) or V. cholerae SAD30 (LB); 384-well bacterial growth screen at 25 uM, OD600 relative to DMSO control; conditions: relative growth, OD600, TSB; 25 µM; inhibitor
T1 construct: MSSA476

Row | Compound | % of control remaining
1 | C=CC(=O)NCCc1nc(C)no1 [3-N19, N-[2-(3-methyl-1,2,4-oxadiazol-5-yl)ethyl]prop-2-enamide] | 119.112%
2 | CCn1ccc(CN(C)C(=O)CCl)n1 [5-K06, 2-chloro-N-[(1-ethyl-1H-pyrazol-3-yl)methyl]-N-methylacetamide] | 77.5956%
3 | COc1ccc(Cl)cc1NC(=O)C(C)Cl (stereo not drawn) [6-G16, 2-chloro-N-(5-chloro-2-methoxyphenyl)propanamide] | 98.6829%
4 | COc1ccc2cc(C=C(C#N)C(=O)NCc3ccccc3)ccc2c1 [9-D07, N-benzyl-2-cyano-3-(6-methoxynaphthalen-2-yl)prop-2-enamide] | 106.367%
5 | CCn1cc(CN(C(=O)CCl)[C@H]2CC[C@H](C)CC2)cn1 [5-G16, 2-chloro-N-[(1-ethyl-1H-pyrazol-4-yl)methyl]-N-[(1r,4r)-4-methylcyclohexyl]acetamide] | 96.5392%
6 | C=CC(=O)NCCc1csc(C)n1 [1-D13, N-[2-(2-methyl-1,3-thiazol-4-yl)ethyl]prop-2-enamide] | 90.022%
7 | C=CC(=O)Nc1cccc(-c2nnnn2C(C)C)c1 [1-A16, N-{3-[1-(propan-2-yl)-1H-1,2,3,4-tetrazol-5-yl]phenyl}prop-2-enamide] | 104.44%
8 | CC(Cl)C(=O)N(C)C1CCN(c2ccccc2Cl)C1=O (stereo not drawn) [7-C16, 2-chloro-N-[1-(2-chlorophenyl)-2-oxopyrrolidin-3-yl]-N-methylpropanamide] | 120.879%
9 | CC(Cl)C(=O)NC1CCCc2c1cnn2Cc1ccccc1 (stereo not drawn) [7-G13, N-(1-benzyl-4,5,6,7-tetrahydro-1H-indazol-4-yl)-2-chloropropanamide] | 81.0047%
10 | COC(=O)c1c(NC(=O)CCl)sc2c1CCC(C(C)(C)C)C2 (stereo not drawn) [4-J19, methyl 6-tert-butyl-2-(2-chloroacetamido)-4,5,6,7-tetrahydro-1-benzothiophene-3-carboxylate] | 117.77%
11 | C=CC(=O)N1CCS(=O)(=O)N2CCCC12 (stereo not drawn) [3-H18, 1-(prop-2-enoyl)-hexahydro-1H-4lambda6-pyrrolo[1,2-b][1,2,4]thiadiazine-4,4-dione] | 121.898%
12 | Cc1cc(C(=O)CCl)c(C)n1CC(N)=O [10-O16, 2-[3-(2-chloroacetyl)-2,5-dimethyl-1H-pyrrol-1-yl]acetamide] | 129.688%
13 | C=CC(=O)NC1CCOC1C (stereo not drawn) [1-F06, N-(2-methyloxolan-3-yl)prop-2-enamide] | 89.6703%
14 | Cc1ccc(C=C(C#N)C(=O)Nc2ccc(C(=O)N(C)C)cc2)o1 [9-P14, 4-[2-cyano-3-(5-methylfuran-2-yl)prop-2-enamido]-N,N-dimethylbenzamide] | 101.573%
15 | Cc1cccc(C)c1NC(=O)C(C#N)=Cc1ccsc1 [8-I07, 2-cyano-N-(2,6-dimethylphenyl)-3-(thiophen-3-yl)prop-2-enamide] | 121.494%
16 | Cc1nsc(N2CCN(C(=O)C(C)Cl)CC2)c1C#N (stereo not drawn) [6-H15, 5-[4-(2-chloropropanoyl)piperazin-1-yl]-3-methyl-1,2-thiazole-4-carbonitrile] | 103.122%
17 | COc1cc(C=C(C#N)C(=O)Nc2cccc(C)c2)c2c(c1)CC(C)O2 (stereo not drawn) [8-N22, 2-cyano-3-(5-methoxy-2-methyl-2,3-dihydro-1-benzofuran-7-yl)-N-(3-methylphenyl)prop-2-enamide] | 121.162%
18 | Cc1cc(C)c(NC(=O)C(C#N)=Cc2ccc(C(C)(C)C)cc2)c(C)c1 [8-I13, 3-(4-tert-butylphenyl)-2-cyano-N-(2,4,6-trimethylphenyl)prop-2-enamide] | 90.9544%
19 | C=CC(=O)N(Cc1cn(C)nc1-c1ccc(F)cc1)C1CC(C)C1 (stereo not drawn) [1-P09, N-{[3-(4-fluorophenyl)-1-methyl-1H-pyrazol-4-yl]methyl}-N-(3-methylcyclobutyl)prop-2-enamide] | 106.901%
20 | O=C(CCl)Nc1ncc(Cc2ccccc2Cl)s1 [4-P07, 2-chloro-N-{5-[(2-chlorophenyl)methyl]-1,3-thiazol-2-yl}acetamide] | 107.099%
21 | C=CC(=O)NC(C)c1cn(-c2ccccc2)nn1 (stereo not drawn) [1-N04, N-[1-(1-phenyl-1H-1,2,3-triazol-4-yl)ethyl]prop-2-enamide] | 95.6484%
22 | N#CC(=Cc1cc(F)ccc1F)C(=O)NC1CCCC1 [8-I12, 2-cyano-N-cyclopentyl-3-(2,5-difluorophenyl)prop-2-enamide] | 78.3402%
23 | C=CC(=O)N1CCC(c2nc3c(s2)CCC3)CC1 [3-I22, 1-(4-{4H,5H,6H-cyclopenta[d][1,3]thiazol-2-yl}piperidin-1-yl)prop-2-en-1-one] | 90.2046%

Row | Compound | % of control remaining
24 | O=C(CCl)NSc1ccc([N+](=O)[O-])cc1 [4-P13, 2-chloro-N-[(4-nitrophenyl)sulfanyl]acetamide] | 1.906%
25 | C=CC(=O)NCc1ccccc1S(=O)(=O)NC [1-N03, N-{[2-(methylsulfamoyl)phenyl]methyl}prop-2-enamide] | 86.1538%
26 | Cc1ccc(N(CCC#N)C(=O)CCl)cc1 [4-M15, 2-chloro-N-(2-cyanoethyl)-N-(4-methylphenyl)acetamide] | 113.578%
27 | Cc1ccc(N2CCCC2CNC(=O)CCl)cc1 (stereo not drawn) [7-H14, 2-chloro-N-{[1-(4-methylphenyl)pyrrolidin-2-yl]methyl}acetamide] | 83.2025%
28 | Cc1nn(C)c(C)c1C=C(C#N)C(=O)Nc1cccc(Cl)c1C [9-M20, N-(3-chloro-2-methylphenyl)-2-cyano-3-(1,3,5-trimethyl-1H-pyrazol-4-yl)prop-2-enamide] | 103.371%
29 | COc1ccc(C=C(C#N)C(=O)Nc2ccccc2[N+](=O)[O-])cc1 [8-G03, 2-cyano-3-(4-methoxyphenyl)-N-(2-nitrophenyl)prop-2-enamide] | 119.502%
30 | C=CC(=O)Nc1ncccn1 [1-M12, N-(pyrimidin-2-yl)prop-2-enamide] | 75.2527%
31 | O=C(CCl)Nc1cc(S(=O)(=O)N2CCCC2)ccc1Cl [6-G14, 2-chloro-N-[2-chloro-5-(pyrrolidine-1-sulfonyl)phenyl]acetamide] | 93.2195%
32 | C=CC(=O)N1CCCCC1 [1-C12, 1-(piperidin-1-yl)prop-2-en-1-one] | 98.4615%
33 | C=CC(=O)Nc1cnn(CC(F)(F)F)c1 [1-A11, N-[1-(2,2,2-trifluoroethyl)-1H-pyrazol-4-yl]prop-2-enamide] | 131.516%
34 | C=CC(=O)NCc1ccnn1C1CCCC1 [3-H21, N-[(1-cyclopentyl-1H-pyrazol-5-yl)methyl]prop-2-enamide] | 99.6082%
35 | C=CC(=O)NCc1ccc(-n2ccc(C3CC3)n2)cc1 [2-B03, N-{[4-(3-cyclopropyl-1H-pyrazol-1-yl)phenyl]methyl}prop-2-enamide] | 116.275%
36 | C=CC(=O)NCc1cccc(N2C(=O)NC3(CCCC3)C2=O)c1 [2-M11, N-[(3-{2,4-dioxo-1,3-diazaspiro[4.4]nonan-3-yl}phenyl)methyl]prop-2-enamide] | 92.9504%
37 | COc1cc([N+](=O)[O-])ccc1NC(=O)C(C)Cl (stereo not drawn) [4-K12, 2-chloro-N-(2-methoxy-4-nitrophenyl)propanamide] | 98.7137%
38 | C=CC(=O)N1CSCC1C(=O)NCC1CC1 (stereo not drawn) [1-P17, N-(cyclopropylmethyl)-3-(prop-2-enoyl)-1,3-thiazolidine-4-carboxamide] | 104.44%
39 | CC(Cl)C(=O)Nc1cc(C(F)(F)F)ccc1Cl (stereo not drawn) [4-N15, 2-chloro-N-[2-chloro-5-(trifluoromethyl)phenyl]propanamide] | 97.9514%
40 | CC(Cl)C(=O)N1CCCCC1c1nc(-c2ncccn2)no1 (stereo not drawn) [7-D15, 2-chloro-1-{2-[3-(pyrimidin-2-yl)-1,2,4-oxadiazol-5-yl]piperidin-1-yl}propan-1-one] | 96.0754%
41 | C=CC(=O)NCc1ccc(C(=O)NC2CC(=O)N(C)C2)cc1 (stereo not drawn) [3-N22, N-(1-methyl-5-oxopyrrolidin-3-yl)-4-[(prop-2-enamido)methyl]benzamide] | 119.46%
42 | N#CC(C(=O)CCl)=C1NC(=O)c2ccccc2N1 [10-P14, 4-chloro-3-oxo-2-(4-oxo-1,2,3,4-tetrahydroquinazolin-2-ylidene)butanenitrile] | 93.75%
43 | Cc1nc2ccccc2n(CCCN(C)C(=O)CCl)c1=O [6-D04, 2-chloro-N-methyl-N-[3-(3-methyl-2-oxo-1,2-dihydroquinoxalin-1-yl)propyl]acetamide] | 74.0976%
44 | COc1cc(C=C(C#N)C(=O)Nc2nccs2)cc(OC)c1 [9-J03, 2-cyano-3-(3,5-dimethoxyphenyl)-N-(1,3-thiazol-2-yl)prop-2-enamide] | 113.258%
45 | C=CC(=O)N1CCn2nccc21 [1-P16, 1-{1H,2H,3H-pyrazolo[1,5-a]imidazol-1-yl}prop-2-en-1-one] | 105.143%

From publication PMC11995724, “Antibiotic target discovery by integrated phenotypic and activity-based profiling of electrophilic fragments” (Cell chemical biology, 2025)
